Measured values published in the supplement of paper PMC4967469.
By IC50 is meant the dose at which the fit gives 50% viability; fits outside the tested doses are given as limits. For AUC the same curve is integrated over the 256-fold range of doses and scaled to a fraction; values near 1 show little effect. For part of these data: Any top dose called inferred was derived from the fitted curves, not read from the paper. For part of these data: An entry number marks a drug with two screens in the source, which often give different values.

What was measured:
Assay in all cases: Viability of human cancer cell lines after 72 h of drug (GDSC screen)
XMD13-2 = compound: O=C(NC1CC1)c1cccc(-c2ccc3c(NC(=O)C4CC4)n[nH]c3c2)c1 [XMD13-2]; conditions: top dose 10.24 µM; top dose inferred
Method: (§1)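 Human cancer cell lines in 384-well plates, medium with 10% serum, drug for 72 h over a 256-fold dose range (nine 2-fold or five 4-fold steps up to the top dose). Adherent lines were fixed and stained with the nucleic acid dye Syto60, suspension lines read with resazurin; signal relative to control wells, capped at 0 and 100%. One two-parameter sigmoid per drug and line, fitted in a mixed model over all curves with the slope shared within a line.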

SNX-2112 = compound: CC1(C)CC(=O)c2c(C(F)(F)F)nn(-c3ccc(C(N)=O)c(N[C@H]4CC[C@H](O)CC4)c3)c2C1 [SNX-2112]; conditions: top dose 2.56 µM
Method: as §1

PF-562271 = compound: CN(c1ncccc1CNc1nc(Nc2ccc3c(c2)CC(=O)N3)ncc1C(F)(F)F)S(C)(=O)=O [PF-562271]; conditions: top dose 2.56 µM; top dose inferred
Method: as §1

Vinblastine = compound: CC[C@]1(O)C[C@@H]2CN(CCc3c([nH]c4ccccc34)[C@@](C(=O)OC)(c3cc4c(cc3OC)N(C)[C@H]3[C@@](O)(C(=O)OC)[C@H](OC(C)=O)[C@]5(CC)C=CCN6CC[C@]43[C@@H]65)C2)C1 [Vinblastine]; conditions: top dose 0.1 µM; top dose inferred
Method: as §1

Afatinib = compound: CN(C)C/C=C/C(=O)Nc1cc2c(Nc3ccc(F)c(Cl)c3)ncnc2cc1O[C@H]1CCOC1 [Afatinib]
Method: as §1

[1] = top dose 0.5 µM, screen: GDSC drug entry 1032
[2] = top dose 10 µM, screen: GDSC drug entry 1377, top dose inferred

HDLM-2 (Hodgkin lymphoma, suspension)
AUC (XMD13-2): 0.973
IC50 (XMD13-2): > 10200 nM
AUC (SNX-2112): 0.957
IC50 (SNX-2112): > 2560 nM
AUC (PF-562271): 0.964
IC50 (PF-562271): > 2560 nM
AUC (Vinblastine): 0.423
IC50 (Vinblastine): 3.86 nM
AUC (Afatinib; [1]): 0.984
IC50 (Afatinib; [1]): > 500 nM
AUC (Afatinib; [2]): 0.98
IC50 (Afatinib; [2]): > 10000 nM

HDQ-P1 (breast, adherent)
AUC (XMD13-2): 0.959
IC50 (XMD13-2): > 10200 nM
AUC (SNX-2112): 0.869
IC50 (SNX-2112): > 2560 nM
AUC (PF-562271): 0.935
IC50 (PF-562271): > 2560 nM
AUC (Vinblastine): 0.798
IC50 (Vinblastine): 58.4 nM
AUC (Afatinib; [1]): 0.801
IC50 (Afatinib; [1]): 299 nM
AUC (Afatinib; [2]): 0.914
IC50 (Afatinib; [2]): > 10000 nM

HEC-1 (endometrium, adherent)
AUC (XMD13-2): 0.981
IC50 (XMD13-2): > 10200 nM
AUC (SNX-2112): 0.983
IC50 (SNX-2112): > 2560 nM
AUC (PF-562271): 0.955
IC50 (PF-562271): > 2560 nM
AUC (Vinblastine): 0.588
IC50 (Vinblastine): 10.8 nM
AUC (Afatinib; [1]): 0.948
IC50 (Afatinib; [1]): > 500 nM
AUC (Afatinib; [2]): 0.987
IC50 (Afatinib; [2]): > 10000 nM

HGC-27 (stomach, adherent)
AUC (XMD13-2): 0.933
IC50 (XMD13-2): > 10200 nM
AUC (SNX-2112): 0.501
IC50 (SNX-2112): 161 nM
AUC (PF-562271): 0.839
IC50 (PF-562271): 1380 nM
AUC (Vinblastine): 0.319
IC50 (Vinblastine): 2.13 nM
AUC (Afatinib; [1]): 0.988
IC50 (Afatinib; [1]): > 500 nM
AUC (Afatinib; [2]): 0.986
IC50 (Afatinib; [2]): > 10000 nM

HH (T-cell leukaemia, suspension)
AUC (XMD13-2): 0.819
IC50 (XMD13-2): 8500 nM
AUC (SNX-2112): 0.292
IC50 (SNX-2112): 33.7 nM
AUC (PF-562271): 0.929
IC50 (PF-562271): > 2560 nM
AUC (Vinblastine): 0.527
IC50 (Vinblastine): 7.61 nM
AUC (Afatinib; [1]): 0.964
IC50 (Afatinib; [1]): > 500 nM
AUC (Afatinib; [2]): 0.863
IC50 (Afatinib; [2]): > 10000 nM

HL-60 (acute myeloid leukaemia, suspension)
AUC (XMD13-2): 0.879
IC50 (XMD13-2): 8650 nM
AUC (SNX-2112): 0.315
IC50 (SNX-2112): 51.7 nM
AUC (PF-562271): 0.92
IC50 (PF-562271): > 2560 nM
AUC (Vinblastine): 0.446
IC50 (Vinblastine): 4.51 nM
AUC (Afatinib; [1]): 0.964
IC50 (Afatinib; [1]): > 500 nM
AUC (Afatinib; [2]): 0.989
IC50 (Afatinib; [2]): > 10000 nM

HMV-II (melanoma, adherent)
AUC (XMD13-2): 0.873
IC50 (XMD13-2): > 10200 nM
AUC (SNX-2112): 0.689
IC50 (SNX-2112): 616 nM
AUC (PF-562271): 0.853
IC50 (PF-562271): > 2560 nM
AUC (Vinblastine): 0.637
IC50 (Vinblastine): 16.3 nM
AUC (Afatinib; [1]): 0.978
IC50 (Afatinib; [1]): > 500 nM
AUC (Afatinib; [2]): 0.98
IC50 (Afatinib; [2]): > 10000 nM

HN (head and neck, adherent)
AUC (XMD13-2): 0.988
IC50 (XMD13-2): > 10200 nM
AUC (SNX-2112): 0.884
IC50 (SNX-2112): 2480 nM
AUC (PF-562271): 0.984
IC50 (PF-562271): > 2560 nM
AUC (Vinblastine): 0.483
IC50 (Vinblastine): 5.63 nM
AUC (Afatinib; [1]): 0.717
IC50 (Afatinib; [1]): 123 nM
AUC (Afatinib; [2]): 0.505
IC50 (Afatinib; [2]): 643 nM

HO-1-u-1 (head and neck, adherent)
AUC (XMD13-2): 0.968
IC50 (XMD13-2): > 10200 nM
AUC (SNX-2112): 0.738
IC50 (SNX-2112): 739 nM
AUC (PF-562271): 0.927
IC50 (PF-562271): > 2560 nM
AUC (Vinblastine): 0.64
IC50 (Vinblastine): 15 nM
AUC (Afatinib; [1]): 0.7
IC50 (Afatinib; [1]): 111 nM
AUC (Afatinib; [2]): 0.937
IC50 (Afatinib; [2]): > 10000 nM

HOP-62 (lung adenocarcinoma, adherent)
AUC (XMD13-2): 0.927
IC50 (XMD13-2): > 10200 nM
AUC (SNX-2112): 0.347
IC50 (SNX-2112): 60.3 nM
AUC (PF-562271): 0.879
IC50 (PF-562271): > 2560 nM
AUC (Vinblastine): 0.595
IC50 (Vinblastine): 11.4 nM
AUC (Afatinib; [1]): 0.986
IC50 (Afatinib; [1]): > 500 nM
AUC (Afatinib; [2]): 0.984
IC50 (Afatinib; [2]): > 10000 nM

HOP-92 (large cell lung carcinoma, adherent)
AUC (XMD13-2): 0.974
IC50 (XMD13-2): > 10200 nM
AUC (SNX-2112): 0.601
IC50 (SNX-2112): 318 nM
AUC (PF-562271): 0.835
IC50 (PF-562271): 2070 nM
AUC (Vinblastine): 0.646
IC50 (Vinblastine): 17 nM
AUC (Afatinib; [1]): 0.977
IC50 (Afatinib; [1]): > 500 nM
AUC (Afatinib; [2]): 0.947
IC50 (Afatinib; [2]): > 10000 nM
